These are yes or no findings as the source states them, for the method shown. Binding seen in cells or lysates may run through a third protein. Some results given as binding are weak or reduced against the parent protein; the word gives no strength.

Chains of the proteins cited; added tags and fusions are not shown. Lines headed by an entry give the natural chain unless they say otherwise; changes in a name come on top. A line that says so, or that is headed by a name, gives the form on record, which may keep a tag or linker.
UniProt P17302: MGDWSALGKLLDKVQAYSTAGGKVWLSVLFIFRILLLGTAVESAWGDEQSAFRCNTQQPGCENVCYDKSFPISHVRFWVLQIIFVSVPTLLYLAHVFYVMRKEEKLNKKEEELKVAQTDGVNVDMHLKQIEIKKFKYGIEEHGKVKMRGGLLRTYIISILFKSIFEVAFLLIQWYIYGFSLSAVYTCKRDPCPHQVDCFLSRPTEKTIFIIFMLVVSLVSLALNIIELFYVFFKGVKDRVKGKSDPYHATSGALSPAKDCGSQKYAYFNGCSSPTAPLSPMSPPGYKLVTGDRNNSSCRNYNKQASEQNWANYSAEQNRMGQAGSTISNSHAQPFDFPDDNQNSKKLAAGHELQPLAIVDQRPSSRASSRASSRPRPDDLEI
UniProt P16863: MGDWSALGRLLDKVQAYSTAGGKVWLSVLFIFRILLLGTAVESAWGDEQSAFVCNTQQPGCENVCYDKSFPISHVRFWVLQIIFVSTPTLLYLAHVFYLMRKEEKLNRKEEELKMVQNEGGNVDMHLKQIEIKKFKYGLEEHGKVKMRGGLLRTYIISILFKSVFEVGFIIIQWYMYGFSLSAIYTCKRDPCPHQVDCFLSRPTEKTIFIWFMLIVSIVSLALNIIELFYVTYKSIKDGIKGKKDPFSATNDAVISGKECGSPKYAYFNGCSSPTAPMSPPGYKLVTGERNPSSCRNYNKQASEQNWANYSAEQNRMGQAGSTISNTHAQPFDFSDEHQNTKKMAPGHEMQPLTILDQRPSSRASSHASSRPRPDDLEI
Xenopus laevis dominant-negative GJA1 Δ234–243-Flag (P16863, form named): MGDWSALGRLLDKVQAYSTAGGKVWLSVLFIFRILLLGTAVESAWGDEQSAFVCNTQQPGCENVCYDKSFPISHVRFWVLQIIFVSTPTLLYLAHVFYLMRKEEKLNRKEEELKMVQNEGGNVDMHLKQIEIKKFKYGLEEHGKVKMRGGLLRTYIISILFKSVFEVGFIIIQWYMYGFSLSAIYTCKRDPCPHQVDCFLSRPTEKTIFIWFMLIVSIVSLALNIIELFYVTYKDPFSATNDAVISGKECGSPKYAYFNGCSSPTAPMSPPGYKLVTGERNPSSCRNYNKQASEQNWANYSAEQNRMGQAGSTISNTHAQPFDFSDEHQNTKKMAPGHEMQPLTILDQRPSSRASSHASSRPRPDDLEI
Xenopus laevis dominant-negative GJA1 Δ130–136-Flag (P16863, form named): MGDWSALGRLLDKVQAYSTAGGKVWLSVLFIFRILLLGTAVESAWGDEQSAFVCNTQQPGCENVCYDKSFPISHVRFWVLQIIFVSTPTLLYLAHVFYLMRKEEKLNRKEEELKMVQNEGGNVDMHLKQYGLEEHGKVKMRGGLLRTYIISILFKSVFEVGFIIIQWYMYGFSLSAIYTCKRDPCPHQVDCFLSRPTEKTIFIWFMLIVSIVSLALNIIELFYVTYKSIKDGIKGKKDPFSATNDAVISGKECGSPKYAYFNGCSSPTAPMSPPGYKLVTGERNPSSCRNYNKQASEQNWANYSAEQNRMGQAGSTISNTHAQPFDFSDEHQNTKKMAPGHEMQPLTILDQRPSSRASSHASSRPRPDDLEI
UniProt P61006: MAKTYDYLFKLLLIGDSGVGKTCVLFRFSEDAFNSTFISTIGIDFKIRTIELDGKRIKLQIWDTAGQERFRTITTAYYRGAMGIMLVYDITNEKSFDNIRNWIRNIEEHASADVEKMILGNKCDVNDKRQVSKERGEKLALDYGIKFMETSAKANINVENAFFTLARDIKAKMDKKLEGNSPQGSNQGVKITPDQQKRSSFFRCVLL
UniProt P62491: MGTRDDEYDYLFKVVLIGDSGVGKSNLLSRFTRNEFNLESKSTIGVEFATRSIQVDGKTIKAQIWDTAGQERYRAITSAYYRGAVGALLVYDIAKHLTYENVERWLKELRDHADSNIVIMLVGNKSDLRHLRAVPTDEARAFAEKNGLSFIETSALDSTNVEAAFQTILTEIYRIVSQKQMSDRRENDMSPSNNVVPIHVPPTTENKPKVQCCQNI

For assay [1], the target named is Gap junction protein α1 (GJA1), endogenous in human RPE1 cells (human (endogenous in RPE1)) (UniProt P17302). Put plainly: co-IP; lysate of RPE1 cells expressing HA-tagged Rab protein; anti-GJA1 antibody-conjugated or IgG-conjugated beads; immunoblot with anti-GJA1 and anti-HA.
In assay [2] the target is Xenopus laevis dominant-negative GJA1 Δ234–243-Flag (Xenopus laevis) (UniProt P16863). The experiment in a line: co-IP; lysate of RPE1 cells co-expressing Rab11a-HA and WT-GJA1-Flag or dnGJA1-Flag; anti-Flag M2 magnetic beads; immunoblot with anti-flag and anti-HA.
Assay [3] concerns the target Xenopus laevis dominant-negative GJA1 T154A-Flag (Xenopus laevis) (UniProt P16863). Described as above.
The target of assay [4] is Xenopus laevis wild-type GJA1-Flag (Xenopus laevis) (UniProt P16863). The assay is described as above.
The target in assay [5] is Xenopus laevis dominant-negative GJA1 Δ130–136-Flag (Xenopus laevis) (UniProt P16863). Described as above.

For “HA-tagged Rab8a (from UniProt P61006 1-207)”, the binding entry in assay [1] is recorded as “binds”.
Regarding “HA-tagged Rab11a (from UniProt P62491 1-216)”, the binding entry in assay [1] is “binds”; in assay [2] it was “no binding”; in assay [3], “no binding”; in assay [4] it was “binds”; in assay [5], “no binding”.
